According to PubChem BioAssay AID1508623 (National Center for Advancing Translational Sciences (NCATS), 2021):
The whole screen tested about 48,000 compounds, of which about 450 (0.94%) were called active. Roughly 19% stayed inconclusive and do not appear here. Calls come from the whole dose curve; as a rule, active = well fitted inhibition curve with a large enough effect; inconclusive = small, poorly fitted or top-dose-only effect; inactive = no such curve, though single readings can be large or run the other way. The list shows a part of the results.

experiment: Primary qHTS for Identification of Small Molecule Inhibitors of Huntingtin Promoter Activity; details: HEK293 HTT promoter firefly luciferase reporter (activity 0% = vehicle and -100% = no light), 24 h; series mostly up to 57.5 µM; activity change, negative = inhibition: at the top concentration; note: nearly all actives have a fitted effect of over 50% in size
Outline: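 Luminescence was read after Dual-Glo reagent and a 10 min room-temperature incubation. Values were normalized to vehicle (0% activity) and zero RLU (-100% activity). Reporter HEK293 cells had been exposed to compounds (up to 57.5 uM final) for 24 h.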

Structure (SMILES)	activity change, negative = inhibition
O=C(CN1CCCN(Cc2ccccc2F)S1(=O)=O)Nc1ccc(F)c(Cl)c1	inactive: -4.38%
Cc1ccc(CNCc2ccccc2Cl)s1	inactive: 23.2%
COc1ccc(-c2nnc(SCC(=O)NCCC(C)C)nc2-c2ccc(OC)c(OC)c2)cc1OC	inactive: -22.2%
COCc1cc(C)nc2c1C(=O)NC(c1ccc(F)cc1)N2Cc1ccccc1 (centres undefined)	inactive: -17.8%
COC(=O)c1cc2oc(C)cc2n1CC(=O)Nc1ccc(C(C)C)cc1	inactive: -28.1%
CCCCNC(=O)c1ccc2c(=O)n(Cc3ccc(OC)cc3)c(=O)[nH]c2c1	inactive: 0.875%
CC1=C(C(=O)NCc2cccc(F)c2)C2(CCCCC2)OC1=O	inactive: -20.5%
CC1Cc2ccccc2N1C(=O)CSc1nc2ccc(NC(=O)COc3ccccc3)cc2s1 (centres undefined)	inactive: -32.1%
CCCCOC(=O)c1ccc(N)cc1	inactive: 9.31%
CCOC(=O)C(C)Sc1ccc2nnc(CCNS(=O)(=O)c3ccc(C)cc3)n2n1 (centres undefined)	inactive: 7.41%
N#Cc1c(C(F)(F)F)cc(-c2cccs2)nc1SCc1ccc(F)cc1	inactive: -2.74%
Cc1ccccc1CSc1cn(CC(=O)N2CCCCC2)c2ccccc12	inactive: -2.82%
CCOC(=O)c1c(C)oc2nc(C)nc(NCC3CCN(Cc4ccc(C)cc4)CC3)c12	inactive: -0.43%
Cc1nn(C)cc1CN(C)C(=O)c1cc(-c2ccccc2)nc2ccc(Br)cc12	inactive: -8.75%
Cc1ccc(NC(=O)CCS(=O)(=O)c2ccc(Br)s2)c(Br)c1	inactive: -17.2%
CCCc1ccc(OCC(=O)Nc2sc(C(=O)OCC)c(C)c2C(=O)OCC)cc1	inactive: -0.699%
CCc1ccccc1NS(=O)(=O)c1ccc2[nH]cc(C(=O)N(CC)Cc3ccccc3)c(=O)c2c1	inactive: 4.51%
CSc1ncc(C(=O)NCc2ccccc2F)c(-c2ccccc2)n1	inactive: 1.5%
CCc1ccc(C2CC(=O)c3c([nH]c(C(=O)OC4CCCC4)c3C)C2)cc1 (centres undefined)	inactive: 5.39%
COc1ccc(C2NC(=O)N(C)C3=C2C(=O)N(c2ccc(C(=O)O)cc2)C3)cc1 (centres undefined)	inactive: -8.78%
COc1ccc(OC)c(C2CC(=O)Nc3c2c(=O)[nH]c2ncnn32)c1 (centres undefined)	inactive: -2.95%
CCc1ccc2occ(CC(=O)Nc3c(C(=O)c4ccc(C)cc4)oc4ccccc34)c2c1	inactive: -8.09%
COc1ccc(S(=O)(=O)Nc2c(C)nc3nc[nH]n3c2=O)cc1	inactive: -3.55%
O=[N+]([O-])c1cccc(S(=O)(=O)NCCNS(=O)(=O)c2cccc([N+](=O)[O-])c2)c1	inactive: -16.6%
Cc1ccc2c(CNCc3ccc(C)o3)c(C(=O)O)n(Cc3ccccc3C)c2c1	inactive: -19.8%

Structure (SMILES)	activity change, negative = inhibition
Cc1cc(S(=O)(=O)C(CNC(=O)c2ccc(F)c(F)c2)c2cccs2)ccc1F (centres undefined)	inactive: -17.5%
Cc1ccc(S(=O)(=O)n2nc(-c3ccc(Cl)cc3)nc2NCc2ccc(F)cc2)cc1	inactive: -5.71%
Cc1cc(C)c2c(CC(=O)Nc3ccc(S(=O)(=O)Nc4nc(C)cc(C)n4)cc3)coc2c1	inactive: -26.5%
Cc1ccc(-c2ccc(=O)n(CC(=O)NCCc3ccccc3)n2)cc1	inactive: -0.967%
O=S(=O)(NCCc1csc2nc(-c3ccccc3)nn12)c1cc(F)ccc1F	inactive: -12.5%
Cc1ccc(-n2ncc3c(Nc4cccc(C(=O)O)c4)ncnc32)cc1	inactive: -11.9%
CCCCn1cnc2cc(NCc3ccccc3Cl)ccc21	inactive: -24%
Cc1ccc(NC(=O)C(=O)NCC(c2cccnc2)N2CCN(Cc3ccccc3)CC2)cc1F (centres undefined)	inactive: -32.3%
CCCSCCCNC(=O)C1CCN(c2nc3ccccc3nc2C(F)(F)F)CC1	inactive: -25.7%
O=C(Cc1cccs1)NC1CC(=O)N(c2ccc(F)cc2)C1 (centres undefined)	inactive: -1.81%
COc1ccc(-c2nc3ccccc3s2)cc1NC(=O)c1ccccc1F	inactive: -0.514%
CSc1cccc(NC(=O)Nc2ccccc2OCc2cc(=O)n3cc(C)ccc3n2)c1	inactive: 36.4%
CCc1ccc(S(=O)(=O)Nc2ccc3c(c2)n(C)c(=O)c(=O)n3C)cc1	inactive: -27.7%
Cc1cc(N)c2cc(NC(=O)Nc3ccc4nc(C)cc(N)c4c3)ccc2n1	inactive: -6.09%
COc1ccc(C(=O)Nc2ccc3nc(SCC(=O)N4CCc5ccccc54)sc3c2)cc1	inactive: -17%
COc1ccc(NC(=O)CCNS(=O)(=O)c2ccc3c(c2)CCCC(=O)N3)cc1Cl	inactive: -20.1%
O=C(NCc1ccc(Cl)cc1)NCc1noc2ccccc12	inactive: 18.5%
COC(=O)c1ccccc1NC(=O)C1=CC(c2cccs2)=NS(=O)(=O)N1C	inactive: -20.5%
COc1ccc(-n2nc3cc(C)c(NC(=O)c4ccc(-c5ccc(Cl)cc5)o4)cc3n2)cc1	inactive: 4.1%
Cc1cc(OCC(=O)Nc2cc(-c3nc4ncccc4o3)ccc2C)ccc1Cl	inactive: 12.5%
COc1ccc(OCc2ccc(-c3nc(C#N)c(NC(C)c4ccccc4)o3)o2)cc1 (centres undefined)	inactive: -22.4%
Cc1cccc(C)c1Nc1c(-c2ccccn2)nc2c(C)cccn12	inactive: -36.9%
CCOc1ccc2nc(N3CCCC(C(=O)NCCc4ccc(OCC)c(OCC)c4)C3)sc2c1 (centres undefined)	inactive: 16.3%
Cc1nn(CC(=O)Nc2ccc(OC(F)(F)F)cc2)c(=O)c2c(C)n(-c3ccc(Cl)cc3)nc12	inactive: -0.926%
